# Test results published in the supplement of paper PMC8728848.
# This is one part of the list.
# B1: MGL (Homo sapiens), Q8IUN9 (protein)
# chain: MTRTYENFQYLENKVKVQGFKNGPLPLQSLLQRLCSGPCHLLLSLGLGLLLLVIICVVGFQNSKFQRDLVTLRTDFSNFTSNTVAEIQALTSQGSSLEETIASLKAEVEGFKQERQAGVSELQEHTTQKAHLGHCPHCPSVCVPVHSEMLLRVQQLVQDLKKLTCQVATLNNNASTEGTCCPVNWVEHQDSCYWFSHSGMSWAEAEKYCQLKNAHLVVINSREEQNFVQKYLGSAYTWMGLSDPEGAWKWVDGTDYATGFQNWKPGQPDDWQGHGLGGGEDCAHFHPDGRWNDDVCQRPYHWVCEAGLGQTSQESH
# Columns and labels:
# Experiment in all cases: glycan array binding signal (z-score within array); higher = stronger binding
# Conditions in all cases: glycan notation: IUPAC condensed, linker removed
# [1] = biological target: Neu5Ac(a2-3)Gal
# Summary of the method: (§1)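 Negative Z-scores can be read as non-binding. The Z-score is calculated within each array and then averaged across arrays of one protein sequence at different concentrations or buffers and across linkers. Arrays, 3228 in all, were curated from the Consortium for Functional Glycomics database and kept only where the protein sequence was available.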
# [2] = biological target: Neu5Ac(a2-3)Gal(b1-3)GalNAc
# Summary of the method: as §1
# [3] = biological target: Neu5Ac(a2-3)Gal(b1-3)GalNAc(b1-3)Gal(a1-4)Gal(b1-4)Glc
# Summary of the method: as §1
# [4] = biological target: Neu5Ac(a2-3)Gal(b1-3)GalNAc(b1-4)[Neu5Ac(a2-3)]Gal(b1-4)Glc
# Summary of the method: as §1
# [5] = biological target: Neu5Ac(a2-3)Gal(b1-3)GalNAc(b1-4)[Neu5Ac(a2-8)Neu5Ac(a2-3)]Gal(b1-4)Glc
# Summary of the method: as §1
# [6] = biological target: Neu5Ac(a2-3)Gal(b1-3)GalNAc6S
# Summary of the method: as §1
# [7] = biological target: Neu5Ac(a2-3)Gal(b1-3)GlcNAc
# Summary of the method: as §1
# [8] = biological target: Neu5Ac(a2-3)Gal(b1-3)GlcNAc(b1-2)Man
# Summary of the method: as §1
# [9] = biological target: Neu5Ac(a2-3)Gal(b1-3)GlcNAc(b1-2)Man(a1-3)[GlcNAc(b1-4)][Neu5Ac(a2-3)Gal(b1-3)GlcNAc(b1-2)Man(a1-6)]Man(b1-4)GlcNAc(b1-4)GlcNAc
# Summary of the method: as §1
# [10] = biological target: Neu5Ac(a2-3)Gal(b1-3)GlcNAc(b1-2)Man(a1-3)[Neu5Ac(a2-3)Gal(b1-3)GlcNAc(b1-2)Man(a1-6)]Man(b1-4)GlcNAc(b1-4)GlcNAc
# Summary of the method: as §1
# [11] = biological target: Neu5Ac(a2-3)Gal(b1-3)GlcNAc(b1-2)[Neu5Ac(a2-3)Gal(b1-3)GlcNAc(b1-4)]Man(a1-6)[Neu5Ac(a2-3)Gal(b1-3)GlcNAc(b1-2)Man(a1-3)]Man(b1-4)GlcNAc(b1-4)GlcNAc
# Summary of the method: as §1
# [12] = biological target: Neu5Ac(a2-3)Gal(b1-3)GlcNAc(b1-3)Gal(b1-3)GlcNAc
# Summary of the method: as §1
# [13] = biological target: Neu5Ac(a2-3)Gal(b1-3)GlcNAc(b1-3)Gal(b1-4)GlcNAc
# Summary of the method: as §1
# [14] = biological target: Neu5Ac(a2-3)Gal(b1-3)GlcNAc(b1-3)GalNAc
# Summary of the method: as §1
# [15] = biological target: Neu5Ac(a2-3)Gal(b1-3)GlcNAc(b1-4)Gal(b1-4)Glc
# Summary of the method: as §1
# [16] = biological target: Neu5Ac(a2-3)Gal(b1-3)GlcNAc(b1-6)GalNAc
# Summary of the method: as §1
# [17] = biological target: Neu5Ac(a2-3)Gal(b1-3)GlcNAc6S
# Summary of the method: as §1
# [18] = biological target: Neu5Ac(a2-3)Gal(b1-3)[Fuc(a1-4)]GlcNAc
# Summary of the method: as §1
# [19] = biological target: Neu5Ac(a2-3)Gal(b1-3)[Fuc(a1-4)]GlcNAc(b1-3)Gal(b1-3)[Fuc(a1-4)]GlcNAc
# Summary of the method: as §1
# [20] = biological target: Neu5Ac(a2-3)Gal(b1-3)[Fuc(a1-4)]GlcNAc(b1-3)Gal(b1-4)[Fuc(a1-3)]GlcNAc
# Summary of the method: as §1
# [21] = biological target: Neu5Ac(a2-3)Gal(b1-3)[GlcNAc(b1-6)]GalNAc
# Summary of the method: as §1
# [22] = biological target: Neu5Ac(a2-3)Gal(b1-3)[Neu5Ac(a2-6)]GalNAc
# Summary of the method: as §1
# [23] = biological target: Neu5Ac(a2-3)Gal(b1-3)[Neu5Ac(a2-6)]GlcNAc(b1-3)[Fuc(a1-3)[Gal(b1-4)]GlcNAc(b1-6)]Gal(b1-4)Glc
# Summary of the method: as §1
# [24] = biological target: Neu5Ac(a2-3)Gal(b1-3)]Neu5Ac(a2-3)Gal(b1-4)]GlcNAc
# Summary of the method: as §1
# [25] = biological target: Neu5Ac(a2-3)Gal(b1-4)Glc
# Summary of the method: as §1
# [26] = biological target: Neu5Ac(a2-3)Gal(b1-4)GlcNAc
# Summary of the method: as §1
# [27] = biological target: Neu5Ac(a2-3)Gal(b1-4)GlcNAc(b1-2)Man
# Summary of the method: as §1
# [28] = biological target: Neu5Ac(a2-3)Gal(b1-4)GlcNAc(b1-2)Man(a1-3)[GlcNAc(b1-4)][Neu5Ac(a2-3)Gal(b1-4)GlcNAc(b1-2)Man(a1-6)]Man(b1-4)GlcNAc(b1-4)GlcNAc
# Summary of the method: as §1
# [29] = biological target: Neu5Ac(a2-3)Gal(b1-4)GlcNAc(b1-2)Man(a1-3)[Neu5Ac(a2-3)Gal(b1-4)GlcNAc(b1-2)Man(a1-6)]Man(b1-4)GlcNAc(b1-4)GlcNAc
# Summary of the method: as §1
# [30] = biological target: Neu5Ac(a2-3)Gal(b1-4)GlcNAc(b1-2)Man(a1-3)[Neu5Ac(a2-3)Gal(b1-4)GlcNAc(b1-2)Man(a1-6)]Man(b1-4)GlcNAc(b1-4)[Fuc(a1-6)]GlcNAc
# Summary of the method: as §1
# [31] = biological target: Neu5Ac(a2-3)Gal(b1-4)GlcNAc(b1-2)Man(a1-3)[Neu5Ac(a2-6)Gal(b1-4)GlcNAc(b1-2)Man(a1-6)]Man(b1-4)GlcNAc(b1-4)GlcNAc
# Summary of the method: as §1
# [32] = biological target: Neu5Ac(a2-3)Gal(b1-4)GlcNAc(b1-2)[Neu5Ac(a2-3)Gal(b1-4)GlcNAc(b1-4)]Man(a1-3)[GlcNAc(b1-4)][Neu5Ac(a2-3)Gal(b1-4)GlcNAc(b1-2)[Neu5Ac(a2-3)Gal(b1-4)GlcNAc(b1-6)]Man(a1-6)]Man(b1-4)GlcNAc(b1-4)GlcNAc
# Summary of the method: as §1
# [33] = biological target: Neu5Ac(a2-3)Gal(b1-4)GlcNAc(b1-2)[Neu5Ac(a2-3)Gal(b1-4)GlcNAc(b1-4)]Man(a1-3)[GlcNAc(b1-4)][Neu5Ac(a2-3)Gal(b1-4)GlcNAc(b1-4)Man(a1-6)]Man(b1-4)GlcNAc(b1-4)GlcNAc
# Summary of the method: as §1
# [34] = biological target: Neu5Ac(a2-3)Gal(b1-4)GlcNAc(b1-2)[Neu5Ac(a2-3)Gal(b1-4)GlcNAc(b1-6)]Man(a1-6)[Neu5Ac(a2-3)Gal(b1-4)GlcNAc(b1-2)Man(a1-3)][GlcNAc(b1-4)]Man(b1-4)GlcNAc(b1-4)GlcNAc
# Summary of the method: as §1
# [35] = biological target: Neu5Ac(a2-3)Gal(b1-4)GlcNAc(b1-3)Gal
# Summary of the method: as §1
# [36] = biological target: Neu5Ac(a2-3)Gal(b1-4)GlcNAc(b1-3)Gal(b1-3)GlcNAc
# Summary of the method: as §1
# [37] = biological target: Neu5Ac(a2-3)Gal(b1-4)GlcNAc(b1-3)Gal(b1-4)GlcNAc
# Summary of the method: as §1
binder,measurement,setting,value
B1,glycan array binding signal (z-score),[1],-0.251
same,glycan array binding signal (z-score),[2],-0.241
same,glycan array binding signal (z-score),[3],-0.243
same,glycan array binding signal (z-score),[4],-0.251
same,glycan array binding signal (z-score),[5],-0.245
same,glycan array binding signal (z-score),[6],-0.245
same,glycan array binding signal (z-score),[7],-0.243
same,glycan array binding signal (z-score),[8],-0.252
same,glycan array binding signal (z-score),[9],-0.245
same,glycan array binding signal (z-score),[10],-0.248
same,glycan array binding signal (z-score),[11],-0.233
same,glycan array binding signal (z-score),[12],-0.253
same,glycan array binding signal (z-score),[13],-0.252
same,glycan array binding signal (z-score),[14],-0.252
same,glycan array binding signal (z-score),[15],-0.251
same,glycan array binding signal (z-score),[16],2.82
same,glycan array binding signal (z-score),[17],-0.243
same,glycan array binding signal (z-score),[18],-0.249
same,glycan array binding signal (z-score),[19],-0.219
same,glycan array binding signal (z-score),[20],-0.219
same,glycan array binding signal (z-score),[21],-0.817
same,glycan array binding signal (z-score),[22],-0.217
same,glycan array binding signal (z-score),[23],-0.232
same,glycan array binding signal (z-score),[24],-0.234
same,glycan array binding signal (z-score),[25],-0.306
same,glycan array binding signal (z-score),[26],-0.24
same,glycan array binding signal (z-score),[27],-0.19
same,glycan array binding signal (z-score),[28],-0.24
same,glycan array binding signal (z-score),[29],-0.19
same,glycan array binding signal (z-score),[30],-0.237
same,glycan array binding signal (z-score),[31],-0.239
same,glycan array binding signal (z-score),[32],-0.245
same,glycan array binding signal (z-score),[33],-0.243
same,glycan array binding signal (z-score),[34],-0.24
same,glycan array binding signal (z-score),[35],-0.539
same,glycan array binding signal (z-score),[36],-0.241
same,glycan array binding signal (z-score),[37],-0.238
